Experimental data from PubChem BioAssay AID686978 (National Center for Advancing Translational Sciences (NCATS), 2013).
About 64,000 (15%) of roughly 420,000 compounds were called active. Inconclusive results, whose numbers are uncertain, are shown with a selection of clear calls. Calls follow the shape of the dose curve; as a rule, active = well fitted inhibition curve with a large enough effect; inconclusive = small, poorly fitted or top-dose-only effect; inactive = flat fitted curve, though single readings scatter. No potency is given beside an inconclusive call; the fits are too rough. Square brackets hold non-standard residues; d marks the D form. Peptide text beside a SMILES is read from it.
% is scaled to controls: 0 for no effect and ±100 for the full control effect; potency is read from the fitted curve at half-maximal effect; tags tell the direction and shape of the fitted curve.

Assay: qHTS for Inhibitors of human tyrosyl-DNA phosphodiesterase 1 (TDP1): qHTS in cells in absence of CPT; also: nearly all actives have a fitted effect of over 55% in size
Settings: DT40 Tdp1-/- hTDP1 cells, no CPT, ATP luminescence, 48 h; activity change, negative = growth inhibition: at 46.2 µM (top of the series) unless noted
In short: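 Chicken DT40 Tdp1-/- cells stably complemented with human TDP1 were seeded at 400 cells/well with DMSO in place of 20 nM camptothecin. After compound pinning, cells grew at least 48 hr at 37 °C; viability read by CellTiter-Glo luminescence.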
For Cc1cccc(C)c1NC(=O)CCCSc1nnc(-c2ccc(F)cc2)n1-c1ccccc1, the Potency was inconclusive [inhibitor, single point]. For COc1ccc(OC)c(NC(=O)Cn2ncc3c2-c2ccccc2OC3)c1, the Potency was inconclusive [inhibitor, single point]. In the case of O=C(NCCC1=CCCCC1)C1CCN(C(=O)N2CCOc3ccccc32)CC1, the Potency is reported as inconclusive [inhibitor, single point]. For O=P(COCCOCCOCCOCP(=O)(c1ccccc1)c1ccccc1)(c1ccccc1)c1ccccc1, the Potency was inconclusive [inhibitor, partial curve]. For COC(=O)c1ccc(NC(=S)NCCc2cccc(C)c2)cc1, the Potency was inconclusive [inhibitor, single point]. In the case of O=C(N1CCCC1)C12CC3CCC(CC(C3)C1)C2, the Potency is reported as inconclusive [inhibitor, full curve]. For COc1cccc(CN(C)C(=O)c2cc(S(=O)(=O)NC3CCCCC3)ccc2C)c1, the Potency was inconclusive [inhibitor, single point]. For CSCC[C@H](C=O)NC(=O)[C@H](CC(C)C)NC(=O)[C@H](CC(C)C)NC(C)=O (Ac-Leu-Leu-[dM]-aldehyde), the Potency was active: 15 µM. In the case of Cc1ccc(S(=O)(=O)N2CCN(C(=O)CN3CCCSc4ccccc43)CC2)cc1, the Potency is reported as inconclusive [inhibitor, single point]. For CC(C)(C)CNC(=O)c1cccc2c1C(=O)c1ccc(-c3cc4ccccc4o3)cc1S2(=O)=O, the activity change, negative = growth inhibition was inconclusive: -36.4% [inhibitor]. In the case of O=C(Oc1ccccc1Cl)c1ccc2c(=O)n3c(nc2c1)CCC3, the “activity change, negative = growth inhibition” value is reported as inactive: -3.13%. In the case of CSc1cccc(NC(=O)CN(c2cc(C)ccc2C)S(C)(=O)=O)c1, the activity change, negative = growth inhibition is reported as inconclusive: -31.2% [inhibitor]. For CCOC(=O)C1(Cc2ccccc2C(F)(F)F)CCN(C(=O)c2cc(C(C)=O)n[nH]2)CC1, the Potency was inconclusive [inhibitor, single point]. In the case of O=C(O)CCC(=O)c1ccc2c(c1)OCCCO2, the “activity change, negative = growth inhibition” value is reported as inactive: -5.63%. With COc1cccc(-n2ccnc2SCC(=O)Nc2cc(C)on2)c1 the Potency was inconclusive [inhibitor, single point]. With O=C1CN(C(=O)c2ccc(S(=O)(=O)N3CCCCC3)cc2)C(c2ccc(F)cc2)c2cc(Cl)ccc2N1 (stereo not given) the Potency was inconclusive [inhibitor, single point]. For NC(=O)c1cc(S(=O)(=O)N2CCN(c3ccc([N+](=O)[O-])cc3)CC2)cs1, the Potency was inconclusive [inhibitor, partial curve]. In the case of CCN(CC)CCn1c(=N)n(CCOc2ccccc2Cl)c2ccccc21, the Potency is reported as active: 4.11 µM. For COc1ccc(C2=C(C)C(=O)N(Cc3ccc(C(=O)Nc4ccc(F)cc4C)cc3)S2(=O)=O)cc1, the Potency was active: 3.66 µM. In the case of O=C(NCCc1ccccc1)c1ccc(CSc2nc3cccnc3n2Cc2ccccc2F)cc1, the Potency is reported as active: 9.2 µM. For Cn1cc(CN2CCC(C(=O)N3CCCCC3)CC2)c(-c2ccccc2F)n1, the “activity change, negative = growth inhibition” value was inactive: -0.736%. In the case of CCCn1c(SC(C)C(=O)NC2CCCC2)n[nH]c1=O (stereo not given), the “activity change, negative = growth inhibition” value is reported as inactive: 2.62%. In the case of CC(C)C[C@@H]1CN=C(N)N1C[C@@H]1CCCN1C[C@@H](C(C)C)N1C[C@@H](Cc2ccccc2)N(CCCC2CCCC2)C1=N, the Potency is reported as inconclusive [inhibitor, single point]. With Cn1c(SCC(=O)c2ccccc2)nnc1C1COc2ccccc2O1 (stereo not given) the Potency was inconclusive [inhibitor, single point]. In the case of CCCC(=O)Nc1ccc(C(=O)COC(=O)C2CC2)cc1, the “activity change, negative = growth inhibition” value is reported as inactive: -18.7%. With CCN1CCN(c2ccc(S(=O)(=O)N3CCCC3)cn2)CC1 the “activity change, negative = growth inhibition” value was inactive: -1.91%. With COCCNc1nc(-c2cc(-c3ccccc3)on2)cc(C(C)C)n1 the Potency was inconclusive [inhibitor, single point]. For CC(NC(=O)C1CCCN1S(=O)(=O)c1ccccc1)c1ccccc1 (stereo not given), the Potency was inconclusive [inhibitor, single point]. With COc1cc(/C=C2/SC(=O)N(Cc3ccccc3Cl)C2=O)ccc1OCc1ccncc1 the Potency was inconclusive [inhibitor, single point]. With CCn1cc(C(=O)NCc2ccco2)c(=O)c2cc(S(=O)(=O)N3CCCCCC3)ccc21 the Potency was inconclusive [inhibitor, partial curve]. For O=C(Cc1ccccc1)NCCSCc1ccc(Cl)cc1, the “activity change, negative = growth inhibition” value was inactive: -10.6%. For CCOC(=O)c1c(-c2ccccc2)csc1NC(=O)CCN1C(=O)c2ccccc2C1=O, the activity change, negative = growth inhibition was inconclusive: -30.3% [inhibitor]. In the case of COc1ccc2c(c1)CCN=C2Cc1ccc(OC)c(OC)c1, the Potency is reported as active: 16.4 µM. In the case of COc1cc(NC(=O)c2cc(C)on2)cc(C(=O)Nc2cccc(C(F)(F)F)c2)c1, the Potency is reported as inconclusive [inhibitor, single point]. In the case of Cc1nn(Cc2ccc(Cl)cc2)c(C)c1NC(=O)CCCn1nc([N+](=O)[O-])c(Cl)c1C, the Potency is reported as inconclusive [inhibitor, single point].
